Test results taken from publication PMC4336329 (PLoS ONE, 2015).
The campaign covered roughly 310,000 compounds. About 2,200 (0.71%) showed an effect of 50% or more. The effect is printed as a negative number. The list shows a part of the results.

biological target: human ether-à-go-go-related gene (hERG) potassium channel (human, UniProt Q12809); assay: primary screen, population patch clamp on CHO cells stably expressing hERG
Sequence (Q12809 whole entry, looked up): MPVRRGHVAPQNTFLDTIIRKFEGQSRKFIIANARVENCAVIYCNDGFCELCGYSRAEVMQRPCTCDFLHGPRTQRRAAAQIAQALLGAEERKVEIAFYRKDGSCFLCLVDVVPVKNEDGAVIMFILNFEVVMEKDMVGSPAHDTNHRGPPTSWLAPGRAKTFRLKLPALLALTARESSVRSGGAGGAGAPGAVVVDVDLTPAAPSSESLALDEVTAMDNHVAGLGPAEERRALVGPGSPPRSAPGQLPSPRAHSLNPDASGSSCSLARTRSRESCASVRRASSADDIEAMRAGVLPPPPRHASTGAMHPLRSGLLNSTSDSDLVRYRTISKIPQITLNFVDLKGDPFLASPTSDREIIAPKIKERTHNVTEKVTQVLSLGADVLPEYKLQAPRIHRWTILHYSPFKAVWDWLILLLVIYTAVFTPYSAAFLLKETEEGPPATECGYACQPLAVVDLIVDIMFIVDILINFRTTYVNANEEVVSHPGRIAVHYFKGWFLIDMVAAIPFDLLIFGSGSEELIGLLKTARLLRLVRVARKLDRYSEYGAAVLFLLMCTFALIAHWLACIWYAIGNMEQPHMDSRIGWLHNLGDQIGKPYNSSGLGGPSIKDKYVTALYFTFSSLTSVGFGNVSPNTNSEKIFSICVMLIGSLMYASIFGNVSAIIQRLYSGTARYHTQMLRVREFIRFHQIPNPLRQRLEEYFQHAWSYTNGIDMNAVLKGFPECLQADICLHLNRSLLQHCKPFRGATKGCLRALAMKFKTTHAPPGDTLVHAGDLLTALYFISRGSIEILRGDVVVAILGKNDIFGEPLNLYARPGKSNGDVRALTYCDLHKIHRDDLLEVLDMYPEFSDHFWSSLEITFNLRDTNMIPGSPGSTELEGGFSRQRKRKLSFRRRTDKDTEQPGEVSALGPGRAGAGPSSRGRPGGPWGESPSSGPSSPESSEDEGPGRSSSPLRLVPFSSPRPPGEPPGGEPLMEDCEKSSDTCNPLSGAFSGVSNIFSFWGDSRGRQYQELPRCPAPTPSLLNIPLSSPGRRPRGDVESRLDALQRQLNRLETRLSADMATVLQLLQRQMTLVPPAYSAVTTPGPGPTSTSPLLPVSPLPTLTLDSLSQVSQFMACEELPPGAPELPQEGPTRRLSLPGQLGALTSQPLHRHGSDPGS

| Compound | hERG current change (%, negative = inhibition) at 1uM |
| --- | --- |
| COC(=O)c1c(C)[nH]c(C(=O)CSc2ccc(Cl)cc2)c1C | 13.4% |
| COc1ccc(NC(=O)c2ccc3c(c2)C(=O)N(CC2CCCO2)C3=O)c(OC)c1 (stereo not shown) | 8.53% |
| Cc1ccc(CSCC(=O)N2CCOCC2)cc1 | 6.55% |
| O=[N+]([O-])c1ccc(-c2ccc(/C=N/O)o2)cc1 | 10.6% |
| CCc1ccc(CNC(=O)CCc2nc(-c3cccs3)no2)cc1 | -0.667% |
| Cc1ccnc(NS(=O)(=O)c2ccc(NC(=O)c3cncc(Br)c3)cc2)n1 | 7.45% |
| [Br-].c1cc[n+](CCCC[n+]2ccccc2)cc1 | 14.8% |
| CN1CCN(c2ccc([N+](=O)[O-])c3cccnc23)CC1 | -3.89% |
| CC(Cc1ccccc1)NC(=O)Cc1ccc([N+](=O)[O-])cc1 (stereo not shown) | -0.434% |
| O=C(NC(=S)Nc1ccc(CN2CCCCC2)cc1)c1ccco1 | -7.26% |
| CCOC(=O)c1sc(Nc2nc(C)cc(C)n2)nc1C | 10.9% |
| COc1ccc(N2C(=O)CSC23C(=O)N(CC(=O)NC2CCCC2)c2ccccc23)cc1 (stereo not shown) | 12.5% |
| COc1ccccc1N1CCN(C(=O)NCc2ccc(Cl)cc2)CC1 | -0.463% |
| COc1ccc(-n2c(N)cc(=O)nc2SCC(=O)N2CCN(c3ccccc3)CC2)cc1 | 9.29% |
| CCc1ccc(-c2nn(Cc3ccccc3)cc2C=O)cc1 | 3.12% |
| CCc1ccc(NC(=O)Cn2cnc([N+](=O)[O-])c2)cc1 | 5.54% |
| O=C(Nc1ccccc1C(=O)O)c1ccccc1 | 8.98% |
| Cn1c(CSc2ncccn2)nnc1SCC(=O)N1CCCCC1 | 17.7% |
| COc1ccc(C(=O)Nn2c(C)nnc2-n2nc(C)cc2C)cc1OC | 16.8% |
| COc1ccc(NS(=O)(=O)c2ccc(NC(=O)C(C)(C(F)(F)F)C(F)(F)F)cc2)nn1 | 9.2% |
| Oc1ccc(-c2cn3cc(C(F)(F)F)ccc3n2)cc1 | 0.186% |
| O=C(CSc1ncn(-c2ccccc2)n1)N1CCc2ccccc21 | 1.39% |
| O=C(CNC(=O)c1ccc(OC(F)F)cc1)Nc1cccc(S(=O)(=O)N2CCCC2)c1 | -4.96% |
| O=C(COC(=O)c1cnccn1)N=c1sccn1Cc1ccccc1Cl | 12.8% |
| CC1CCN(CC(=O)Nc2cccc(Cl)c2)CC1 | -0.572% |
| COc1ccc(/C=C2\CCc3ccccc3C2=O)c(OC)c1OC | 15.7% |
| CCCN(C(=O)C(=O)Nc1ccc2nc3n(c(=O)c2c1)CCCCC3)c1ccc(OCC)cc1 | 9.7% |
| O=C(CCN1CCC(c2ccc(Cl)s2)=N1)c1ccc(Cl)s1 | 10.9% |

| Compound | hERG current change (%, negative = inhibition) at 1uM |
| --- | --- |
| C/C(N)=C(/C#N)C(=O)COc1ncnc2ccccc12 | 7.75% |
| O=c1c2cc(NC(=S)NC3CCCC3)ccc2nc2n1CCCCC2 | 2.82% |
| Cc1cc(NC(=O)CCC(=O)N(Cc2ccc(F)cc2)C(C(=O)NC2CCCC2)c2ccco2)no1 (stereo not shown) | 4.79% |
| CCCN1CCN(C(=O)C2CCN(c3nnc(C)c4c(C)n(-c5ccc(C)cc5)nc34)CC2)CC1 | 8.84% |
| CC(Sc1nnnn1-c1ccccc1)C(=O)Nc1ccc(N2CCN(C)CC2)cc1 (stereo not shown) | 7.21% |
| COc1cccc(N2CCc3c(C)nc4ccc(Cl)cc4c32)c1 | -48.5% |
| COc1ccc(CN2CC(C(=O)NCCCN3CCCCC3)CC2=O)cc1 (stereo not shown) | 12.8% |
| CC(C)(C)CN1CCN(Cc2nc(-c3ccc(F)cc3)cs2)CC1CCO (stereo not shown) | -27.3% |
| O=C(Nc1ccccc1Cl)c1ccc(=O)[nH]n1 | 11.2% |
| COc1ccc(C(=O)/C=C/c2ccc(O)cc2)cc1 | -0.784% |
| Cc1ccc(C)c(-n2cc(CNC(C)Cn3cncn3)c(-c3ccccc3)n2)c1 (stereo not shown) | -0.15% |
| Cc1cccc(Cc2nnc(CCC(=O)N(C)C3CCOC3)o2)c1 (stereo not shown) | 17% |
| Cc1ccc(S(=O)(=O)NNC(=O)NC23CC4CC(CC(C4)C2)C3)cc1 | 12.9% |
| O=C(Nc1ccccc1)N1CCSc2ccccc21 | -9.04% |
| COc1ccc(S(=O)(=O)N(C)C)cc1NC(=O)Cc1cccs1 | 4.34% |
| CCOC(=O)C1=C(O)/C(=C\c2sccc2C)N=C1C | 20.8% |
| Cc1ccccc1NC(=O)c1ccc(Nc2c([N+](=O)[O-])cc([N+](=O)[O-])c3ccccc23)cc1 | 19% |
| Cc1c(C)n2c(SCC(=O)NCc3ccc4c(c3)OCO4)nnc2[nH]c1=O | 11.6% |
| N/C(COc1ccccc1)=N\NS(=O)(=O)c1ccccc1 | 9.58% |
| NC1=NC(=O)/C(=C\c2ccsc2)S1 | 12% |
| CC(C)=Cc1oc2ccc([N+](=O)[O-])cc2c1N1CC(C)OC(C)C1 (stereo not shown) | 10.8% |
| Cc1cc(C)c(C#N)c(SC(F)F)n1 | 4.81% |
| NS(=O)(=O)c1ccc(CNC(=O)CCSCCC(=O)NCc2ccc(S(N)(=O)=O)cc2)cc1 | 12.1% |
| O=C(NCc1ccc(F)cc1)C1CCC(CNc2c(N3CCCCC3)c(=O)c2=O)CC1 (stereo not shown) | 12.9% |
| CC(=O)O[C@H]1C(=O)[C@]2(C)[C@H]([C@H](OC(=O)c3ccccc3)[C@]3(O)C[C@H](OC(=O)[C@H](O)[C@@H](NC(=O)c4ccccc4)c4ccccc4)C(C)=C1C3(C)C)[C@]1(OC(C)=O)CO[C@@H]1C[C@@H]2O | 8.41% |
| COc1ccc(C(=O)c2cc([N+](=O)[O-])ccc2N2CCN(C)CC2)cc1 | -25.5% |
| CCOC(=O)N1CCN(C(=O)CSCC(=O)Nc2nc(-c3cccs3)cs2)CC1 | -8.58% |
